{"source": "PubChem BioAssay AID1476", "about": "(National Center for Advancing Translational Sciences (NCATS), 2009)", "note": "Out of some 200,000 compounds screened, about 4,500 (2.2%) were called active. Inconclusive results, whose numbers are uncertain, are shown with a selection of clear calls. Calls come from the whole dose curve; as a rule, active = well fitted inhibition curve with a large enough effect; inconclusive = small, poorly fitted or top-dose-only effect, or effect the other way; inactive = flat fitted curve, though single readings scatter. A potency beside an inconclusive call is a rough fit, not a confirmed value. Potency is the fitted concentration of half-maximal effect; tags give direction and shape of the fitted curve.", "data": [{"target": "Cruzipain (Trypanosoma cruzi) (UniProt P25779)", "sequence (P25779 whole entry, looked up)": "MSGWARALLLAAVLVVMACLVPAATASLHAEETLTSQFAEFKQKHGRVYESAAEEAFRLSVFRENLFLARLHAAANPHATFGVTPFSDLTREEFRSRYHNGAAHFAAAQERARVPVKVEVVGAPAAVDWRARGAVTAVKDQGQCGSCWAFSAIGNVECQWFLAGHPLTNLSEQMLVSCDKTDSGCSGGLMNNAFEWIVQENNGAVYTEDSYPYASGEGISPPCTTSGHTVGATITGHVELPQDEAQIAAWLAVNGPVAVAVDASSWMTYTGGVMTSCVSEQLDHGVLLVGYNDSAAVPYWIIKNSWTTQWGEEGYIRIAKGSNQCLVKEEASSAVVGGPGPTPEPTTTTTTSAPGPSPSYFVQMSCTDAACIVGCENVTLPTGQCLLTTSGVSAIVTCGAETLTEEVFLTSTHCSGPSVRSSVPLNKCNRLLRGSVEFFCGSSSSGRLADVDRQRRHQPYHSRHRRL", "test": "qHTS Assay for Promiscuous and Specific Inhibitors of Cruzain (without detergent); note: nearly all actives have a fitted effect of over 40% in size;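 for max response, negative = inhibition: plate controls were enzyme without inhibitor for no effect and buffer without enzyme for full effect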", "conditions": "purified cruzain, Z-FR-AMC fluorescence, no detergent", "procedure,_shortened": "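Detergent-free condition (0.00005% Triton X-100) in acetate buffer pH 5.5 with DTT. 1.5 nM enzyme and compound were pre-mixed 15 min, then 2 uM Z-FR-AMC substrate added; reaction progress from fluorescence change between first and third reads (60 s).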", "values": [{"smiles": "Cc1nonc1NC(=O)CSc1nc2cc(Cl)ccc2c2c1CCCC2", "Potency": "inconclusive: 31.6 µM [inhibitor, single point]"}, {"smiles": "O=C(NCCCO)Nc1ccc2nc(-c3ccco3)c(-c3ccco3)nc2c1", "Potency": "active: 7.94 µM"}, {"smiles": "O=C(N/N=C/c1ccc([N+](=O)[O-])s1)c1cccc(Br)c1", "Potency": "inconclusive: 39.8 µM [inhibitor, single point]"}, {"smiles": "O=S(=O)(c1cccc(F)c1)N1CCC(Oc2ccc(-n3cnnn3)cc2)CC1", "max response, negative = inhibition": "inactive: -0.788%"}, {"smiles": "CCc1ccc(S(=O)(=O)c2c(C(=O)c3ccccc3)cnc3ccc(CC)cc23)cc1", "Potency": "inconclusive: 39.8 µM [inhibitor, single point]"}, {"smiles": "Cc1ccc(Cl)cc1N1CCN(S(=O)(=O)c2ccc3c(c2)OCCO3)CC1", "Potency": "inconclusive: 39.8 µM [inhibitor, single point]"}, {"smiles": "Cc1cc(=O)[nH]c2ccc(Cl)cc12", "Potency": "inconclusive: 0.199 µM [inhibitor, single point]"}, {"smiles": "O=C(c1ccccc1)c1nc2ccccc2n(CCCn2c(=O)c(C(=O)c3ccccc3)nc3ccccc32)c1=O", "Potency": "active: 10 µM"}, {"smiles": "C=CCN1C(=O)NC(=O)C(Cc2ccc(OC)c(OC)c2)C1=O", "note": "(stereo not drawn)", "Potency": "inconclusive: 31.6 µM [activator, single point]"}, {"smiles": "COc1ccc(OC)c(NC(=O)C2CC(C)=C(C)CC2C(=O)O)c1", "note": "(stereo not drawn)", "max response, negative = inhibition": "inactive: -7.73%"}, {"smiles": "C[C@@H]1NC(=O)[C@H](CCCN=C(N)N)NC(=O)c2cc([N+](=O)[O-])cc(I)c2OCC[C@@H](C(=O)NC(CC(=O)O)C(N)=O)NC1=O", "note": "(stereo partly drawn)", "Potency": "inconclusive: 39.8 µM [activator, single point]"}, {"smiles": "COc1ccc(C(=O)N2c3ccc(C)cc3C(C)(c3ccccc3)CC2(C)C)cc1", "note": "(stereo not drawn)", "Potency": "inconclusive: 39.8 µM [inhibitor, single point]"}, {"smiles": "O=C(NCCCc1nc2ccccc2n1Cc1ccc(Cl)cc1Cl)c1ccco1", "max response, negative = inhibition": "inactive: 23.6%"}, {"smiles": "COc1ccc(N2C(=O)CC(Sc3ncn[nH]3)C2=O)c(OC)c1", "note": "(stereo not drawn)", "Potency": "inconclusive: 39.8 µM [activator, single point]"}, {"smiles": "Cc1cc(C)nc(NS(=O)(=O)c2ccc(NC(=O)C3(c4ccc([N+](=O)[O-])cc4)CCCC3)cc2)n1", "Potency": "inconclusive: 39.8 µM [activator, single point]"}, {"smiles": "CNC(=S)N/N=C/c1cn(CCOc2cccc(OC)c2)c2ccccc12", "Potency": "active: 25.1 µM"}, {"smiles": "COc1ccc(NC(=O)C(=O)N/N=C/c2cc(C)n(-c3cccc(Cl)c3Cl)c2C)c(OC)c1", "Potency": "active: 12.6 µM"}, {"smiles": "O=c1/c(=C/c2ccccn2)sc2n1CN(c1ccccc1)CN=2", "Potency": "inconclusive: 31.6 µM [inhibitor, single point]"}]}]}
